Measurements published in the supplement of paper PMC4604168 (melanoma cell lines).
The list shows a part of the results. Single values are uncertain, as repeats are few or missing.

Experiments:
Test in all cases: cell count relative to DMSO control; melanoma cells; higher = more viable cells
Settings in all cases: library dose: standard library concentration; 72 h
G361 = tested on: G361
IPC-298 = tested on: IPC-298
IST-MEL1 = tested on: IST-MEL1
LB2518-MEL = tested on: LB2518-MEL
LOXIMVI = tested on: LOXIMVI
MEL-HO = tested on: MEL-HO
MZ2-MEL = tested on: MZ2-MEL
MeWo = tested on: MeWo
RPMI7951 = tested on: RPMI7951
RVH-421 = tested on: RVH-421
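Note: cells treated in 1,536-well plates, then fixed and DAPI-stained, with nuclei counted from automated high-throughput microscope images.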

SMILES	cell count (G361)	cell count (IPC-298)	cell count (IST-MEL1)	cell count (LB2518-MEL)	cell count (LOXIMVI)	cell count (MEL-HO)	cell count (MZ2-MEL)	cell count (MeWo)	cell count (RPMI7951)	cell count (RVH-421)
C[C@]12O[C@H](C[C@]1(O)CO)n1c3ccccc3c3c4c(c5c6ccccc6n2c5c31)CNC4=O [Lestaurtinib] + CN1CCN(c2ccc3nc(-c4c(N)c5c(F)cccc5[nH]c4=O)[nH]c3c2)CC1 [Dovitinib] (first compound 0.02 µM, partner dose 0.5 µM)	46.8%	53.7%	73.2%	36.1%	92.5%	55.4%	37.6%	37.8%	69.8%	54.8%
N.N.[Cl][Pt][Cl] [cisplatin] + O=C1NC(=O)/C(=C/c2ccc(-c3ccc(F)cc3O)o2)S1 [AS252424] (first compound 8 µM, partner dose 5 µM)	75.2%	85.4%	89.4%	75.4%	68.9%	80.1%	93.4%	102%	70.8%	73.3%
N.N.[Cl][Pt][Cl] [cisplatin] + CO[C@@H]1[C@H](N(C)C(=O)c2ccccc2)C[C@H]2O[C@]1(C)n1c3ccccc3c3c4c(c5c6ccccc6n2c5c31)C(=O)NC4 [Midostaurin] (first compound 8 µM, partner dose 0.4 µM)	40.8%	59.2%	472%	50.3%	41%	73.8%	63.4%	63.2%	32.9%	68.2%
Cn1cc(C2=C(c3cn(C4CCN(Cc5ccccn5)CC4)c4ccccc34)C(=O)NC2=O)c2ccccc21 [Enzastaurin] + CO[C@H]1C[C@@H]2CC[C@@H](C)[C@@](O)(O2)C(=O)C(=O)N2CCCC[C@H]2C(=O)O[C@H]([C@H](C)C[C@@H]2CC[C@@H](OCCO)[C@H](OC)C2)CC(=O)[C@H](C)/C=C(\C)[C@@H](O)[C@@H](OC)C(=O)[C@H](C)C[C@H](C)/C=C/C=C/C=C/1C [everolimus] (first compound 4 µM, partner dose 0.1 µM)	78.8%	73.8%	99.6%	71.4%	72.1%	84.9%	77.8%	78.2%	65.1%	92.8%
Cn1cc(C2=C(c3cn(C4CCN(Cc5ccccn5)CC4)c4ccccc34)C(=O)NC2=O)c2ccccc21 [Enzastaurin] + CN(C)S(=O)(=O)c1ccc2c(c1)/C(=C/c1cc3c([nH]1)CCCC3)C(=O)N2 [SU6656] (first compound 4 µM, partner dose 2 µM)	72.1%	78.5%	56.7%	74.5%	109%	75.8%	96%	82.3%	53.1%	53.1%
C[C@]12O[C@H](C[C@]1(O)CO)n1c3ccccc3c3c4c(c5c6ccccc6n2c5c31)CNC4=O [Lestaurtinib] + Nc1ccn([C@@H]2O[C@H](CO)[C@@H](O)C2(F)F)c(=O)n1 [gemcitabine] (first compound 0.02 µM, partner dose 0.002 µM)	24.7%	30.1%	27.3%	47.6%	65.2%	43.6%	69.2%	28.5%	44.2%	50.4%
C[C@]12O[C@H](C[C@]1(O)CO)n1c3ccccc3c3c4c(c5c6ccccc6n2c5c31)CNC4=O [Lestaurtinib] + CN(C)S(=O)(=O)c1ccc2c(c1)/C(=C/c1cc3c([nH]1)CCCC3)C(=O)N2 [SU6656] (first compound 0.02 µM, partner dose 2 µM)	76.9%	57.3%	74.9%	45.1%	101%	92.9%	73.7%	69%	48.1%	87.5%
N.N.[Cl][Pt][Cl] [cisplatin] + C[C@]1(c2nc3c(C(N)=O)cccc3[nH]2)CCCN1 [Veliparib] (first compound 8 µM, partner dose 7 µM)	35.4%	69.4%	90.9%	65.4%	45%	78.1%	50.6%	80.6%	21.8%	81.3%
C[C@]12O[C@H](C[C@]1(O)CO)n1c3ccccc3c3c4c(c5c6ccccc6n2c5c31)CNC4=O [Lestaurtinib] + CNC(=O)c1cc(Oc2ccc(NC(=O)Nc3ccc(Cl)c(C(F)(F)F)c3)cc2)ccn1 [sorafenib] (first compound 0.02 µM, partner dose 2 µM)	80.1%	72.1%	106%	70.7%	103%	81.8%	81.9%	85.5%	75.1%	62.7%
C[As](C)SC[C@H](NC(=O)CC[C@H](N)C(=O)O)C(=O)NCC(=O)O [Darinaparsin] + Cc1cc(SCc2sc(-c3ccc(C(F)(F)F)c(F)c3)nc2C)ccc1OCC(=O)O [GW0742] (first compound 2 µM, partner dose 10 µM)	97.8%	107%	96%	105%	97.2%	107%	115%	94.3%	103%	107%
C[C@]12O[C@H](C[C@]1(O)CO)n1c3ccccc3c3c4c(c5c6ccccc6n2c5c31)CNC4=O [Lestaurtinib] + O=C(O)C(=O)Nc1sc2c(c1C(=O)O)CCNC2 [TCS401] (first compound 0.02 µM, partner dose 8.33333 µM)	78.5%	80.4%	107%	67.6%	267%	95.2%	98.6%	94.4%	137%	87.2%
N.N.[Cl][Pt][Cl] [cisplatin] + Cn1cc(/C=C2\C(=O)Nc3cccnc32)c2ccccc21 [GW441756] (first compound 8 µM, partner dose 2 µM)	90.3%	83%	102%	57.3%	65.7%	71.5%	70.9%	86%	75%	69.9%
C[C@]12O[C@H](C[C@]1(O)CO)n1c3ccccc3c3c4c(c5c6ccccc6n2c5c31)CNC4=O [Lestaurtinib] + O=C(O)c1ccc(-c2c[nH]c3ncc(-c4ccccc4)cc23)cc1C1CCCC1 [GSK650394] (first compound 0.02 µM, partner dose 0.8 µM)	65.2%	60.5%	69.7%	53.8%	76%	66.8%	88.7%	61.6%	90.3%	67.2%
C[As](C)SC[C@H](NC(=O)CC[C@H](N)C(=O)O)C(=O)NCC(=O)O [Darinaparsin] + CC1(C)NC(=O)N(c2ccc([N+](=O)[O-])c(C(F)(F)F)c2)C1=O [nilutamide] (first compound 2 µM, partner dose 5 µM)	77%	110%	77.3%	88.3%	85.8%	93.5%	123%	81.9%	113%	72.1%
Cn1cc(C2=C(c3cn(C4CCN(Cc5ccccn5)CC4)c4ccccc34)C(=O)NC2=O)c2ccccc21 [Enzastaurin] + CC(C)CCN1c2nc(Nc3cc(F)c(O)c(F)c3)ncc2N(C)C(=O)C1C [BID1870] (first compound 4 µM, partner dose 1 µM)	59.5%	86%	67.5%	46.4%	74.1%	78.5%	76.5%	63.6%	45.3%	62.7%
C[C@]12O[C@H](C[C@]1(O)CO)n1c3ccccc3c3c4c(c5c6ccccc6n2c5c31)CNC4=O [Lestaurtinib] + Cc1cc([N+](=O)[O-])ccc1NS(=O)(=O)c1cc(Cl)ccc1Cl [FH535] (first compound 0.02 µM, partner dose 5 µM)	43.3%	47.2%	59.8%	49.2%	80.3%	43.7%	63.9%	67.1%	82.8%	53.6%

SMILES	cell count (G361)	cell count (IPC-298)	cell count (IST-MEL1)	cell count (LB2518-MEL)	cell count (LOXIMVI)	cell count (MEL-HO)	cell count (MZ2-MEL)	cell count (MeWo)	cell count (RPMI7951)	cell count (RVH-421)
C[C@]12O[C@H](C[C@]1(O)CO)n1c3ccccc3c3c4c(c5c6ccccc6n2c5c31)CNC4=O [Lestaurtinib] + Cc1ccc(NC(=O)c2cccc(N(C)C)c2)cc1NC(=O)c1ccc(O)cc1 [ZM336372] (first compound 0.02 µM, partner dose 10 µM)	69.1%	65%	93.9%	41.2%	81.7%	82.1%	87.6%	82.2%	82.8%	79.3%
Cn1cc(C2=C(c3cn(C4CCN(Cc5ccccn5)CC4)c4ccccc34)C(=O)NC2=O)c2ccccc21 [Enzastaurin] + Cn1sc(=O)n(Cc2ccccc2)c1=O [TDZD-8] (first compound 4 µM, partner dose 2 µM)	87.8%	93.1%	86.8%	75.4%	124%	107%	104%	105%	74.4%	63.9%
Cn1cc(C2=C(c3cn(C4CCN(Cc5ccccn5)CC4)c4ccccc34)C(=O)NC2=O)c2ccccc21 [Enzastaurin] + OCc1c[nH]c2ccccc12 [Indole-3-carbinol] (first compound 4 µM, partner dose 4 µM)	102%	119%	100%	121%	87.4%	122%	129%	115%	107%	84.5%
C[As](C)SC[C@H](NC(=O)CC[C@H](N)C(=O)O)C(=O)NCC(=O)O [Darinaparsin] + C[C@]1(c2nc3c(C(N)=O)cccc3[nH]2)CCCN1 [Veliparib] (first compound 2 µM, partner dose 7 µM)	71.2%	89.1%	83.3%	90.4%	64.2%	102%	85.4%	74.5%	90.1%	73.5%
C[C@]12O[C@H](C[C@]1(O)CO)n1c3ccccc3c3c4c(c5c6ccccc6n2c5c31)CNC4=O [Lestaurtinib] + NC1(c2ccc(-c3nc4ccn5c(=O)[nH]nc5c4cc3-c3ccccc3)cc2)CCC1 [MK2206] (first compound 0.02 µM, partner dose 2 µM)	41.4%	53.6%	80.2%	52.1%	209%	50.3%	61.7%	55.2%	114%	82.3%
N.N.[Cl][Pt][Cl] [cisplatin] + CS(=O)(=O)CCNCc1ccc(-c2ccc3ncnc(Nc4ccc(OCc5cccc(F)c5)c(Cl)c4)c3c2)o1 [lapatinib] (first compound 8 µM, partner dose 4 µM)	104%	96.2%	94.5%	114%	78.8%	95.5%	88.7%	80.3%	71.8%	71.3%
N.N.[Cl][Pt][Cl] [cisplatin] + C=C(c1ccc(C(=O)O)cc1)c1cc2c(cc1C)C(C)(C)CCC2(C)C [Bexarotene] (first compound 8 µM, partner dose 10 µM)	78.5%	75.3%	81.7%	84.7%	86.9%	74.2%	73%	94.7%	94.8%	83.4%
C[C@]12O[C@H](C[C@]1(O)CO)n1c3ccccc3c3c4c(c5c6ccccc6n2c5c31)CNC4=O [Lestaurtinib] + O=C(CCCCCCC(=O)Nc1ccccc1)NO [vorinostat] (first compound 0.02 µM, partner dose 0.4 µM)	85.7%	100%	84.7%	66.4%	84.5%	94.4%	110%	80.4%	74.8%	116%
C[C@]12O[C@H](C[C@]1(O)CO)n1c3ccccc3c3c4c(c5c6ccccc6n2c5c31)CNC4=O [Lestaurtinib] + N.N.[Cl][Pt][Cl] [cisplatin] (first compound 0.02 µM, partner dose 8 µM)	69.3%	58%	79.8%	47.4%	81.8%	68%	92%	56.1%	85.7%	79%
Cn1cc(C2=C(c3cn(C4CCN(Cc5ccccn5)CC4)c4ccccc34)C(=O)NC2=O)c2ccccc21 [Enzastaurin] + CCN(CC)CCNC(=O)c1c(C)[nH]c(/C=C2\C(=O)Nc3ccc(F)cc32)c1C [sunitinib] (first compound 4 µM, partner dose 2 µM)	75%	81.8%	111%	78.5%	144%	75.7%	107%	80.8%	40.6%	65.7%
N.N.[Cl][Pt][Cl] [cisplatin] + C[C@@H](Oc1cc(-c2cnn(C3CCNCC3)c2)cnc1N)c1c(Cl)ccc(F)c1Cl [Crizotinib] (first compound 8 µM, partner dose 1 µM)	78.2%	85.5%	98.4%	69.8%	78.2%	85.6%	91.6%	85.6%	80.2%	82.1%
C[C@]12O[C@H](C[C@]1(O)CO)n1c3ccccc3c3c4c(c5c6ccccc6n2c5c31)CNC4=O [Lestaurtinib] + CC(C)CCN1c2nc(Nc3cc(F)c(O)c(F)c3)ncc2N(C)C(=O)C1C [BID1870] (first compound 0.02 µM, partner dose 1 µM)	48.4%	51.3%	78.3%	69.9%	76.3%	57.3%	92.9%	48.1%	58.1%	69.4%
C[C@]12O[C@H](C[C@]1(O)CO)n1c3ccccc3c3c4c(c5c6ccccc6n2c5c31)CNC4=O [Lestaurtinib] + O=C1NC(=O)/C(=C/c2ccc(-c3ccc(F)cc3O)o2)S1 [AS252424] (first compound 0.02 µM, partner dose 5 µM)	82.4%	82.7%	122%	89.4%	119%	83.2%	109%	81.8%	104%	97.8%
N.N.[Cl][Pt][Cl] [cisplatin] + NC(=O)Nc1cc(-c2cccc(F)c2)sc1C(=O)N[C@H]1CCCNC1 [AZD7762] (first compound 8 µM, partner dose 0.1 µM)	75.6%	87.5%	75.2%	69.3%	62.2%	83.6%	97.7%	63.4%	27.2%	90.2%
C[C@]12O[C@H](C[C@]1(O)CO)n1c3ccccc3c3c4c(c5c6ccccc6n2c5c31)CNC4=O [Lestaurtinib] + NCC(=O)Nc1ccc(-n2nc(C(F)(F)F)cc2-c2ccc3c(ccc4ccccc43)c2)cc1 [OSU03012] (first compound 0.02 µM, partner dose 5 µM)	71.4%	66.2%	83.1%	87.4%	77.3%	84.2%	119%	98.4%	139%	77.8%
C[As](C)SC[C@H](NC(=O)CC[C@H](N)C(=O)O)C(=O)NCC(=O)O [Darinaparsin] + COCC[n+]1c2c(n(Cc3cnccn3)c1C)C(=O)c1ccccc1C2=O [YM155] (first compound 2 µM, partner dose 0.002 µM)	69.6%	54.8%	35.3%	32.7%	44.7%	80.3%	25.9%	26.8%	27.3%	63.6%
